In paper PMC12136788:
This is one part of the list.

T1: UNK ZnF1-3 (human, UniProt Q9C0B0 31-174)
T1 sequence: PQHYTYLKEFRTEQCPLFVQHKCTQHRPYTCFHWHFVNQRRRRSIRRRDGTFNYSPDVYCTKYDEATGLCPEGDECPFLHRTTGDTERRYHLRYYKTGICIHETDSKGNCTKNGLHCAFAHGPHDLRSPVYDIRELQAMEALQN

B1: 59359030_59359150_1781_CDS_ENSG00000157450_ENST00000557998|human|control|control (ssRNA)
RNA: GGGAGUUCUACAGUCCGACGAUCGUGGUGGUGAUGAUGUUGAAAAUGGUGACCAUGCUGCUGAAAGCAACUUGUAUGAGGAUGUCCUAAUGCAUGGUGGUUCUGUGACGACCCUCCACAUGGUGAGUGCUGGGGACAGCAGGACAACAGAGGAUUGAGCAUCA
B2: chr17:65740002:65740003:+_ENSG00000130935_ENST00000581375|hu_hu|hu_hu_hu_mus_False|8_48 (ssRNA)
RNA: GGGAGUUCUACAGUCCGACGAUCAACAAAUCUUUCUUCCCUGGACGAACAGGAAGAUUCAUAUUAAAAAAAAUAUAUAUCCAUCAAGGAGAAUUGAGUGGCCACACCUUUACUCCCAGCACUUUGGGAAUAUAAUCUCUGAGUCAACAGAGGAUUGAGCAUCA
B3: chrX:160370135:160370136:+_ENSMUSG00000031367_ENSMUST00000069041|mus_hu|motif|central (ssRNA)
RNA: GGGAGUUCUACAGUCCGACGAUCAAUGAAGCGGCUUAGCAAAACAGUAAUACUGACAAGACAUCAUCUUACACCAUGAGCGGACAUGGACAUGAAGGGAGUGACCAUCUACAGUGUGUGAAAUGCCACAAGAAGUCAUCAACACAACAGAGGAUUGAGCAUCA
B4: 137892206_137892507_1962_CDS_ENSG00000113013_ENST00000297185|human|control|control (ssRNA)
RNA: GGGAGUUCUACAGUCCGACGAUCAUUUUCUCCUGUUUCGCUGUCUUUUCUAGCCAGGAGCUCCCUCAUUUUGGAAAUCUCUUCUUUCAGCUUGUUGCACUCAUCAGCAGGUAAUUGGUCCUUGAAUUCUUCCAUCUUGGUUUCCAACAGAGGAUUGAGCAUCA
B5: chr8:95500983:95500984:-_ENSG00000164944_ENST00000437199|hu_hu|hu_hu_hu_mus_True|68_98 (ssRNA)
RNA: GGGAGUUCUACAGUCCGACGAUCAGAACACAUCUAUUCGUGUAAAGACCGUACAUGACGGCCUCUAACCACUGCCUCACUAACAAACUUUCCUCUCGAGCCUCCACUGCCGCUAUUUGUACUAGCCCAGGACGGUCCCAGGCCCAACAGAGGAUUGAGCAUCA
B6: chr1:112309342:112309343:+_ENSG00000064703_ENST00000369702|hu_mus|FALSE|FALSE (ssRNA)
RNA: GGGAGUUCUACAGUCCGACGAUCUCUCCAGUACUCCUCAUAAUCCUGGUAAGUAUCAGAAAAACUUGCAGUUGUUUCCCUGUGACAGUCAUACCAACUCUCUUCCUGGGGUUCUGACUGUACUCGGUAAGAAGAACGCCGUGCCAACAGAGGAUUGAGCAUCA
B7: chr19:8913615:8913616:-_ENSMUSG00000071658_ENSMUST00000096259|mus_hu|mus_mus_mus_hu_False|38_68 (ssRNA)
RNA: GGGAGUUCUACAGUCCGACGAUCAGGGUACCAAAACCUUCUGCCUGAAAUGGGUGCCCCACCCAGUCAGGACUUGGAGCUGAAAGUAUCUGAUGCACUGACAGUUACUAUACGAAAGGAGGCCCCUGGGGAGGGCCAGGCCAGCAACAGAGGAUUGAGCAUCA
B8: chr17:65740002:65740003:+_ENSG00000130935_ENST00000581375|hu_hu|hu_hu_hu_mus_False|38_48 (ssRNA)
RNA: GGGAGUUCUACAGUCCGACGAUCAACAAAUCUUUCUUCCCUGGACGAACAGGAAGAUUCAUAUUAAAAAAAAUAUAUAUCCAUCAAGGAGAAUUGAUAAUAUCAGACUUUACUCCCAGCACUUUGGGAGGUGGAUCUCUGAGUCAACAGAGGAUUGAGCAUCA
B9: chr7:17501706:17501707:-_ENSMUSG00000019370_ENSMUST00000019514|mus_mus|FALSE|FALSE (ssRNA)
RNA: GGGAGUUCUACAGUCCGACGAUCCUCCAGUAGCGAAAGCAUGUUAGCUUCCAAGGCCUUCCUGCCUCUUCCCACCCUUCCACACACACAACCCCCCCCCCCGCCCCCCGUCCUGGGUCACAUCCUCAACUCCCUCGGUCCUGGCAACAGAGGAUUGAGCAUCA
B10: chr8:95952310:95952311:-_ENSG00000164938_ENST00000448464|hu_mus|FALSE|FALSE (ssRNA)
RNA: GGGAGUUCUACAGUCCGACGAUCUGGGGGAGGAGUGAUGAACCAGCUCUCCUCCAUUGGACAGGACUCAAACUGAAGGAAGCAGGAAUCACUGGUGUCAGUCAAGCAUUCCAAAGAUGCAGGUAAACAGGAGAAGACAGAAGUCAACAGAGGAUUGAGCAUCA
B11: chr6:38652254:38652255:-_ENSG00000124767_ENST00000373365|hu_hu|hu_hu_hu_mus_False|18_78 (ssRNA)
RNA: GGGAGUUCUACAGUCCGACGAUCCGAGAACUUCAUAGCAGGGAAGUCAAGCUUCUGGAUUAGCGUCAGUCCAAGAACCCUCGUAUAAAAAUCCAGGGACUUCUUAGGAUCCUUAAUUCGUAGCAUGGUUUGCUGCAGUAGAAACAACAGAGGAUUGAGCAUCA
B12: chr4:17845017:17845018:+_ENSG00000109805_ENST00000514176|hu_mus|hu_hu_hu_mus_False|1_68 (ssRNA)
RNA: GGGAGUUCUACAGUCCGACGAUCGCUCUCUUAACUUGUAUCUUCAUUAAGGAACUCUGCAAGGUUAGUUUACUUUUUCUGUAGCGCAGCUGUUUUGGCUCGUCUGGGUAAUCUCAUCUUCAUUUCUGAUGGUGGUUUGGAACUCAACAGAGGAUUGAGCAUCA
B13: 94800096_94803529_1555_3pUTR_ENSG00000164953_ENST00000453321|human|control|control (ssRNA)
RNA: GGGAGUUCUACAGUCCGACGAUCUUCUCCAUGAUCCAUUUCAUAUGUGACUGAGAAAGAAACCUUCACAGACUGGCUGUUGGCAUCUUUGAUAUCAAUGUCACUGUAGGCAAUGGUGAUUAAGGGAGGGUAGAUGUUUCCAUUCAACAGAGGAUUGAGCAUCA
B14: chr8:104447970:104447971:+_ENSG00000164934_ENST00000297579|hu_hu|hu_hu_hu_mus_False|1_68 (ssRNA)
RNA: GGGAGUUCUACAGUCCGACGAUCAUACACUUCCCUGCUUCGGCUCUUGUCCACAGGAAAGAUUCUAAUAGAUUUAUCAAAGCUGGCAGACACAAAUUCCUUCCCAGUGGGAGAGUAGUCCACAUCAAGUACUGCAGAUACAUGCAACAGAGGAUUGAGCAUCA
B15: chr2:136607347:136607348:+_ENSMUSG00000027273_ENSMUST00000028727|mus_mus|motif|central (ssRNA)
RNA: GGGAGUUCUACAGUCCGACGAUCGAAUAGCCAUGAGGAACCAAAGACAGCACAUUUGGAGAGAUUCAGAGCCUGACACCCGGAGAAAGGAUUGUGGCAGUAGCUCUGUGGAAUGUCACAGUUUUACAAGAACAAUACUGUGUACAACAGAGGAUUGAGCAUCA
B16: chr1:68170538:68170539:-_ENSG00000172380_ENST00000370982|hu_mus|FALSE|FALSE (ssRNA)
RNA: GGGAGUUCUACAGUCCGACGAUCCUUUGCAACGUUCUUUCAUUACCUUUUUUUUUGUACAAAAAUUUCACGGAAAUUUACCUACACAGAGUCAGGAUAAUGAUGUAACUCUGAAGGGAGGGAGCUACCGCAGGAAGUUUCAGGCAACAGAGGAUUGAGCAUCA
B17: chr22:36164377:36164378:-_ENSG00000100320_ENST00000405409|hu_hu|FALSE|FALSE (ssRNA)
RNA: GGGAGUUCUACAGUCCGACGAUCACGGCCCUCUACCACGGUGCCGUGUAAUUUCUCCCUGGCCCUGUCUGCAUCAGCACUAUUCUCGAAAGUUACGAACCCGAAUCCCUUAGAGCCACGUUCAUUAAAGAUUAUUUCUACAUCCAACAGAGGAUUGAGCAUCA
B18: chr15:68825492:68825493:+_ENSMUSG00000022332_ENSMUST00000022954|mus_hu|FALSE|FALSE (ssRNA)
RNA: GGGAGUUCUACAGUCCGACGAUCAAUCACCACAUCGAUGUACUUUUCUUCAUCCUUGCCUUCUCCUUUUUGAAACUUUUCUAUUUCUUGGUUCACCAGGCGCAGGGCGUGCGUGAAGGAGGGGUCCAGGGAGUCCUUCUCCGCCAACAGAGGAUUGAGCAUCA
B19: 98673252_98673528_14220_CDS_ENSMUSG00000048154_ENSMUST00000023741|mouse|control|control (ssRNA)
RNA: GGGAGUUCUACAGUCCGACGAUCAUUCACCAUCUUCUGCUGCACCGAUGGGGGUGGGGUGGGGGGCAGCGACGAGGGUGGUGUCGGCGGGUUACUCAGGUUAUUCUUGGUAAGCAGCUGAGAGUAGUAGUCAGGGCCGGUGUGCAACAGAGGAUUGAGCAUCA
B20: 151023887_151027089_614_3pUTR_ENSMUSG00000058454_ENSMUST00000124340|mouse|control|control (ssRNA)
RNA: GGGAGUUCUACAGUCCGACGAUCCAUUCACCUCAUACUUGUUUACAACCCCUGCUGGAGUAAUGGCACCUUCUUGGACGCCUCCCACAUAACCUGGCAGAAAUCUGUGGCAGAAGUCAGGAAGCCAGGAAUAAAGCAGCACCUCAACAGAGGAUUGAGCAUCA
B21: chr17:65944371:65944372:-_ENSMUSG00000024091_ENSMUST00000024897|mus_mus|FALSE|FALSE (ssRNA)
RNA: GGGAGUUCUACAGUCCGACGAUCGGGCCGCACACAGUACCGGCGAGGUGCUGUAGUCUUCACUUUGAAACACACUUUUCUAUCCGAUGGAUUUUGCAAUUUAAGAUUUGUAGUGACUACAUCUGUGAAGGGGCCUUUGAAUUUCAACAGAGGAUUGAGCAUCA
B22: chr9:64574521:64574522:-_ENSMUSG00000004771_ENSMUST00000172298|mus_hu|FALSE|FALSE (ssRNA)
RNA: GGGAGUUCUACAGUCCGACGAUCACUGCCCUGAGAUGACGUAGAUCACUCUUAUUGCCCACAAGCAUGAUAACAAUGUUACUAUCAGCAUGAUCUCUCAGUUCUUUCAGCCAUCGCUCUACAUUUUCAUAUGUGAGAUGUUUACAACAGAGGAUUGAGCAUCA

Each binder was assayed against T1, UNK ZnF1-3 (assay: nsRBNS (natural sequence RNA bind-n-seq); RBNS binding buffer (assumed for nsRBNS): 25 mM Tris pH 7.5, 150 mM KCl, 3 mM MgCl2, 0.01% Triton X-100, 500 ug/ml BSA, 20 U/ml SUPERase-In, 4 C; UNK is unkempt and MSI1 is Musashi-1; names of the RNAs are library labels; protein concentration not given here; high values mean tight binding).

Row | Binder | binding signal [enrichment R]
1 | B1 | 1.2
2 | B2 | 2.18
3 | B3 | 1.42
4 | B4 | 0.307
5 | B5 | 0.884
6 | B6 | 0.911
7 | B7 | 1.25
8 | B8 | 1.33
9 | B9 | 1.16
10 | B10 | 1.15
11 | B11 | 0.978
12 | B12 | 0.407
13 | B13 | 1.02
14 | B14 | 1.12
15 | B15 | 1.72
16 | B16 | 1.4
17 | B17 | 1.14
18 | B18 | 0.997
19 | B19 | 0.983
20 | B20 | 1.33
21 | B21 | 0.838
22 | B22 | 0.625
